# Measurements as given in PubChem BioAssay AID2147 (National Center for Advancing Translational Sciences (NCATS), 2009).
# Screen size: about 230,000 compounds; about 3,600 (1.6%) were called active. This list was built around the results that the source calls inconclusive (neither active nor inactive); the mix of calls is not that of the screen. The call rests on the fitted dose curve; in most records, active means well fitted inhibition curve with a large enough effect (not every such curve was filed as active); inconclusive means small, poorly fitted or top-dose-only effect, or another doubt; inactive means no such curve, though single readings can be large or run the other way. Potencies beside an inconclusive call are fits to weak or partial responses and may not hold up.
# Molecular target: Lysine-specific demethylase 4E (Homo sapiens) (UniProt B2RXH2)
# Chain of UniProt B2RXH2 (B2RXH2 whole entry, looked up, the tested form may be a part): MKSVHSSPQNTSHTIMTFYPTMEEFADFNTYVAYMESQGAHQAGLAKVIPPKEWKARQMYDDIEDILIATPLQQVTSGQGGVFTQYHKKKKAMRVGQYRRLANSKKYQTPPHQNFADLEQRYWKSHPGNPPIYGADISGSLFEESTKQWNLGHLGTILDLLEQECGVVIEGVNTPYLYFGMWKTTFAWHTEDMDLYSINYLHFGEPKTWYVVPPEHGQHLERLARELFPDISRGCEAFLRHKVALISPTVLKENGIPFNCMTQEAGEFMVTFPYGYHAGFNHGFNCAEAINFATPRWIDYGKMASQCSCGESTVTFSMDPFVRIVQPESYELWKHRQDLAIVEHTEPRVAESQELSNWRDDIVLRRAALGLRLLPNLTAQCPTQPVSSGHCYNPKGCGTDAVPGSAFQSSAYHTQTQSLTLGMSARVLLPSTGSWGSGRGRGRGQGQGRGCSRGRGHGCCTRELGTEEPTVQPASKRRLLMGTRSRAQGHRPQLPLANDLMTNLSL
# Test: qHTS Assay for Inhibitors of Human Jumonji Domain Containing 2E (JMJD2E)
# Conditions: JMJD2E catalytic domain, FDH-coupled NADH fluorescence (FDH is formaldehyde dehydrogenase); series mostly up to 57.1 µM; activity change, negative = inhibition: at the top concentration
# Further: nearly all actives have a fitted effect of over 50% in size.
# Potency means the concentration at half of the fitted maximal effect; tags describe the fitted curve by direction and shape.
# 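Wherever activity change, negative = inhibition is given: 0% = wells with enzyme and -100% = buffer wells without enzyme.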
Compound,"activity change, negative = inhibition",Potency
FC(F)(F)c1cc(C(F)(F)F)c2ccc(N/N=C/c3ccccc3)nc2n1,inactive: 5.9%,
Cc1cc(C)c2[nH]c(=O)c(CN(Cc3cccnc3)C(=S)NCCCN(C)C)cc2c1,,"inconclusive: 35.5 µM [inhibitor, single point]"
CC(C)(C)c1ccc(O)c(N)c1,inactive: 0.102%,
NC1=NC(=O)/C(=C/c2ccccc2OS(=O)(=O)c2ccccc2)S1,,"inconclusive: 10 µM [inhibitor, partial curve]"
C[C@H]1C[C@H]2[C@@H]3CCC4=CC(=O)C=C[C@]4(C)[C@@]3(Cl)[C@@H](O)C[C@]2(C)[C@@]1(O)C(=O)CO,inactive: 5.87%,
C/C(CC1CC(C)(C)OC1=O)=N\NC(N)=S (centres undefined),,"inconclusive: 25.1 µM [inhibitor, single point]"
Cc1ccc2cc(CN(CCO)Cc3nnnn3Cc3ccc(F)cc3)c(=O)[nH]c2c1,,"inconclusive: 31.6 µM [inhibitor, single point]"
COCC(=O)Nc1ccc(S(=O)(=O)NCCc2ccccc2)cc1,inactive: 12.4%,
OC(COC(c1ccc(Cl)cc1)c1ccc(Cl)cc1)CN1CCCC1 (centres undefined),inactive: -5.08%,
Cc1ccc(NC(=O)c2ccc(-n3cccn3)c([N+](=O)[O-])c2)cc1,inactive: 5.33%,
O=C(Nc1ccc(Cl)cc1C(F)(F)F)c1ccccc1Cl,,"inconclusive: 35.5 µM [inhibitor, single point]"
CN(C(=O)CSc1nc(N)c2c3c(sc2n1)CSC(C)(C)C3)c1ccccc1,,"inconclusive: 35.5 µM [inhibitor, single point]"
COc1ccc2nc(NC(=O)c3ccoc3C)sc2c1,,"inconclusive: 39.8 µM [inhibitor, single point]"
COc1ccc(C2c3[nH]c4ccccc4c3CCN2CCCn2cccn2)cc1C (centres undefined),,"inconclusive: 28.2 µM [inhibitor, partial curve]"
FC(F)(F)c1ccc(C2[C@H]3CN(Cc4ccc(-c5ccccc5)cc4)[C@H](c4ccccc4)C34CC2(c2ccccc2)C4)cc1 (some centres undefined),,"inconclusive: 31.6 µM [inhibitor, single point]"
C=CCn1c(SC(C)C#N)nc2sc(CC)cc2c1=O (centres undefined),inactive: -0.676%,
Cc1nc(N=Nc2ccc(C(=O)O)cc2)c(COP(=O)(O)O)c(C=O)c1O,,active: 28.2 µM
CC1=CCC(C(=O)O)(C(=O)N/N=C/c2cccs2)C(c2ccc([N+](=O)[O-])cc2)C1 (centres undefined),inactive: 3.18%,
CCCNC(=O)CSc1nc(-c2cccs2)cc(C(F)(F)F)n1,,"inconclusive: 31.6 µM [inhibitor, single point]"
O=C(O)/C=C/C(=O)Nc1nccs1,inactive: -4.11%,
O=C(O)c1ccc(Br)cn1,,"inconclusive: 28.2 µM [inhibitor, single point]"
CCOCCNC(=O)c1ccc2c3c(cccc13)CC2,,"inconclusive: 17.8 µM [inhibitor, partial curve]"
O=C(CSc1nnnn1C1CCCCC1)N1CCN(C(=O)c2ccco2)CC1,,"inconclusive: 39.8 µM [inhibitor, single point]"

Compound,"activity change, negative = inhibition",Potency
COc1cc2cc(CN(CCc3cccc(C)c3)C(=S)NCCCN(C)C)c(=O)[nH]c2cc1OC,,"inconclusive: 31.6 µM [inhibitor, partial curve]"
CCOCCCNc1nc2c(C)cccn2c(=O)c1/C=C1\SC(=S)N(C(C)CC)C1=O (centres undefined),inactive: -10.7%,
O=C(Nc1cccn(Cc2c(F)cccc2Cl)c1=O)NC1CCCCC1,,"inconclusive: 35.5 µM [inhibitor, partial curve]"
Oc1ccc2[nH]cnc2c1CN1CCCCC1,,"inconclusive: 39.8 µM [inhibitor, single point]"
O=C(COC(=O)CNC(=O)C1CCCCC1)Nc1ccc(Cl)cn1,inactive: 3.97%,
COc1c(Cl)cc(C(=O)Nc2ccccc2-c2ccccc2)cc1Cl,,"inconclusive: 35.5 µM [inhibitor, single point]"
CCOC(=O)C1=C(N)N2C(=O)CSC2=C(C(=O)OC)C1,,"inconclusive: 25.1 µM [inhibitor, partial curve]"
CN(C)Cc1nc2c([nH]1)c(=O)n(C)c(=O)n2C,inactive: -8.32%,
CC1=Nc2ccccc2/C1=C\c1sc(Nc2ccc(C)cc2)nc1O,inactive: -4.43%,
O=C(c1cc([N+](=O)[O-])ccc1N1CCCCC1)N1CCCC1,inactive: 0.721%,
COc1ccc(-c2noc(N3CCC(C(=O)N4CCN(c5ccccn5)CC4)CC3)n2)cc1,,"inconclusive: 28.2 µM [inhibitor, single point]"
COC(=O)[C@@]1(Cc2ccc(F)cc2)[C@H]2c3cc(C(=O)N4CCCC4)n(CCc4ccc(O)c(O)c4)c3C[C@H]2CN1C(=O)c1ccccc1,,inactive
O=C(c1cccn2c(=O)c3cc(Cl)ccc3nc12)N1CCN(Cc2ccc3c(c2)OCO3)CC1,,"inconclusive: 28.2 µM [inhibitor, partial curve]"
CCOc1cc(C(=S)N2CCOCC2)ccc1OC(=O)/C=C/c1ccc(OC)c(OC)c1,,"inconclusive: 35.5 µM [inhibitor, single point]"
O=C(Nc1nnc(SCc2ccc(F)cc2)s1)c1ccc2ncsc2c1,,"inconclusive: 22.4 µM [inhibitor, partial curve]"
COc1ccc(C(=O)Nc2ccc(OCC(F)(F)C(F)F)c(C(F)(F)F)c2)cc1OC,,"inconclusive: 39.8 µM [inhibitor, single point]"
COC(=O)C1C2C=CC(C3CC23)C1C(=O)OCC(=O)c1ccccc1 (centres undefined),inactive: 3.27%,
C/C(=N\NC(=O)C1COc2ccccc2O1)c1ccc(C)o1 (centres undefined),inactive: -0.988%,
Cc1noc(C)c1CSc1ncnc2sc(C)c(C)c12,,"inconclusive: 39.8 µM [inhibitor, single point]"
COc1ccc(CNC(=O)c2cc3c(=O)n4ccccc4nc3n(CC3CCCO3)c2=N)cc1 (centres undefined),,"inconclusive: 25.1 µM [inhibitor, partial curve]"
O=c1c(-c2nnc(SCc3ccc(Cl)cc3Cl)o2)cccn1Cc1ccccc1,,"inconclusive: 28.2 µM [inhibitor, partial curve]"
Cc1ccc(C)c(/C(O)=C2/C(=O)C(=O)N(CCN3CCOCC3)C2c2ccco2)c1 (centres undefined),,"inconclusive: 35.5 µM [inhibitor, single point]"
Cc1ccc(-c2nn(C)c(=O)c3ccccc23)cc1S(=O)(=O)N1CCOCC1,inactive: -6.33%,

Compound,"activity change, negative = inhibition",Potency
COc1ccc(OC)c(N(CC(=O)Nc2ccccc2C(=O)NCc2ccco2)S(C)(=O)=O)c1,inactive: -3.83%,
O=C(Nc1ccc(O)c(-c2nc3ccccc3o2)c1)C1(c2ccccc2)CCCC1,,"inconclusive: 35.5 µM [inhibitor, single point]"
COc1ccccc1OCC(=O)NNC(=S)NC(=O)c1ccco1,,"inconclusive: 39.8 µM [inhibitor, single point]"
O=C(C[n+]1ccc(C(=O)N/N=C/c2ccc(OCc3ccccc3)cc2)cc1)c1ccccc1,,active: 28.2 µM
COc1ccc(OC)c2[nH]c(C(=O)O)cc12,,"inconclusive: 28.2 µM [inhibitor, partial curve]"
CCOc1ccc2c(C)c(Cl)c(=O)oc2c1,,"inconclusive: 31.6 µM [inhibitor, partial curve]"
COc1ccc(C(=O)Nc2nc3c(s2)CCCC3)cc1S(=O)(=O)N1CCCc2ccccc21,,"inconclusive: 31.6 µM [inhibitor, partial curve]"
C#CCOCCOCCOCCNc1nc(N2CCN(C(=O)[C@H]([C@@H](C)CC)n3cc([C@@H](N)Cc4ccc(O)cc4)nn3)CC2)nc(N2CCN(C(=O)[C@H](Cc3ccc(O)cc3)n3cc([C@@H](N)C(C)CC)nn3)CC2)n1 (some centres undefined),inactive: -4.23%,
Cc1nc2c(-c3ccccc3)c(C)[nH]n2c(=O)c1Cc1ccccc1,,"inconclusive: 39.8 µM [inhibitor, single point]"
Cn1nc(CC(=O)N2CCN(c3ccccc3)CC2)c2ccccc2c1=O,inactive: -3.46%,
Nc1nc(-c2ccc(Cl)cc2)cc(C(F)(F)F)n1,,"inconclusive: 22.4 µM [inhibitor, single point]"
O=C(NCCCN1CCCC1=O)c1ccc2c(=O)n(-c3ccc(F)cc3)c(=S)[nH]c2c1,,"inconclusive: 28.2 µM [inhibitor, single point]"
O=c1[nH][nH]c(=S)n1-c1ccccc1C(F)(F)F,,active: 6.31 µM
CCCSc1nnc(Sc2nnnn2-c2ccccc2)s1,inactive: -2.12%,
CCOC(=O)c1cc(-c2ccccc2)sc1NC(=O)C(C)N1C(=O)NC(C)(c2ccc(Cl)cc2)C1=O (centres undefined),,"inconclusive: 39.8 µM [inhibitor, single point]"
COc1ccc(-c2cc(C(=O)Oc3ccc([N+](=O)[O-])cc3)c3ccccc3n2)cc1,,"inconclusive: 28.2 µM [inhibitor, partial curve]"
O=C(Nc1ncc2c(n1)-c1ccccc1CC2)c1ccc(Cl)cc1,,"inconclusive: 25.1 µM [inhibitor, partial curve]"
COc1ccc(N/C=C2\C(=O)c3c(sc(C)c3C)N(C)S2(=O)=O)cc1,,"inconclusive: 8.91 µM [inhibitor, single point]"
CS(=O)(=O)NN1C(=O)c2ccccc2NC1c1cccc(O)c1 (centres undefined),,"inconclusive: 28.2 µM [inhibitor, partial curve]"
CCCOc1ccc(-c2nn(-c3ccccc3)cc2/C=C2\SC(N)=NC2=O)cc1C,inactive: 6.96%,
COC1=C(c2ccccc2)C(=O)c2ccccc2C1=O,inactive: -19.3%,
COCCCn1c(-c2cccs2)nc2nc3ccccc3nc21,,"inconclusive: 28.2 µM [inhibitor, partial curve]"
O=C(c1ccc2c(c1)OCO2)C1CCCN(C(=O)C2CCOCC2)C1 (centres undefined),,"inconclusive: 31.6 µM [inhibitor, single point]"
